Some of the results follow. These are further read-outs of the screen, such as a control signal, another cell line or another target. No call is given for them. Compounds called inactive in the main read-out are mostly missing here.

The assay is described as follows: growth inhibition of WT strain, primary screen, mitochondrial fusion inhibitor project, WT and mutant strains, chemical genetic (AID 1362). Further: tested in S. cerevisiae. Particulars: mitochondrial fusion phenotypic screen, at 10 µM.
Regarding `Cc1noc(C)c1C(=O)OCC(=O)Nc1ccccc1Oc1ccccc1`, the inhibition is 50.7%.

`CCN(CC)CCOc1ccc(/C(=C(/Cl)c2ccccc2)c2ccccc2)cc1`: the inhibition amounted to 97.1%.

As to `CC(C)(C)[C@H]1C=C(C(=O)N2CCN(Cc3ccc4c(c3)OCO4)CC2)O[C@@H](OCc2ccc(CO)cc2)C1`, the inhibition worked out at 24.9%. Consider `O=C(COC(=O)c1ccc([N+](=O)[O-])s1)Nc1ncc(C(F)(F)F)cc1Cl`, for which the inhibition came to 1.77%. The result for `CC(NC(=O)Nc1nnc(C(F)(F)F)s1)(C(F)(F)F)C(F)(F)F` reads 41%; that for `COc1cc(C=C(c2nc3ccccc3s2)c2nc3ccccc3s2)cc(OC)c1O`, 26.8%. As for `O=C(C1=C[C@H](C2CCCCC2)C[C@H](OCc2ccc(CO)cc2)O1)N1CCN(Cc2ccc3c(c2)OCO3)CC1`, the figure is 29.5%; as for `NNC(=O)/C(=N/Nc1ccccc1)S(=O)(=O)c1ccc(Cl)cc1`, 66%. As for `CCc1c(C)sc(NC(=S)N2CC(C)OC(C)C2)c1C(=O)OC` (configuration not stated), the figure is 49.6%; as for `C/C(=N\NC(=S)NC1CCCCC1)c1c(F)cccc1F`, 31.7%.

Take `c1ccc(-c2noc(-c3ccc4c(c3)OCO4)n2)nc1`: the inhibition came out at 49.4%. As for `O=c1oc2cc(O)ccc2cc1-c1nc2c(s1)CCc1ccccc1-2`, the figure is 96.9%. In the case of `Fc1ccc(C2c3cccn3CCN2C(=S)Nc2cccc(Br)c2)cc1` (configuration not stated), the inhibition worked out at 58.8%.

With `S=c1[nH]nc(COc2ccccc2)n1/N=C/C=C/c1ccccc1`, the inhibition was 38.1%.

As for `CN1CCN(C2=Cc3cc(Cl)ccc3Sc3cc(F)ccc32)CC1`, the inhibition was determined as 95.3%.

`O=c1cc(N2CCCCC2)c(-c2ccccc2)nn1Cc1cccc(Cl)c1`: the inhibition was 37%.

Regarding `Cc1ccc(O)c(C(=O)/C=C/c2ccc3c(c2)OCCO3)c1`, the inhibition stood at 24%. `COc1ccc2c(c1)CCC1=C2NC(=S)NC1c1ccc(N(C)C)cc1` (configuration not stated): the inhibition was determined as 79.1%. Take `O=C(Nc1ccc(F)cc1)c1ccccc1Oc1ccc(C(F)(F)F)cc1[N+](=O)[O-]`: the inhibition is -0.42%.

`COc1ccccc1NC(=O)COC(=O)c1ccc([N+](=O)[O-])s1`: the inhibition was 22.8%. As for `O=C(Nc1nnc(C(F)(F)F)s1)c1ccc(Br)s1`, the figure is 59.6%. The result for `CCc1nnc(NC(=O)c2ccc(S(=O)(=O)N(CC(C)C)CC(C)C)cc2)o1` reads -18.1%; that for `CCOCCCNC(=S)NCCCNc1nc2c(C)c(C)ccc2cc1C#N`, 55.3%. For the compound `O=[N+]([O-])/C=C/c1c(OCc2ccccc2)ccc2ccccc12`, the inhibition worked out at 69.4%.

Consider `CC1CCCN(C(=O)CSc2nnc(-c3cccnc3)n2C2CCCCC2)C1` (configuration not stated), for which the inhibition was -16.5%. As for `c1ccc2cc(CSCc3nc4ccccc4[nH]3)ccc2c1`, the figure is 60.2%. As for `CCOc1nc(NC2CCCCC2)nc(NC(C)(C)C)n1`, the inhibition was determined as 35.9%. As for `c1ccc(C(c2ccccc2)c2nc(-c3cccnc3)no2)cc1`, the figure is 67.4%. As for `Brc1ccc2c(c1)OCCOCCOc1cc(Br)ccc1OCCOCCOCCO2`, the figure is 79.8%. The result for `O=C(COc1ccc(-c2ccccc2)cc1)N/N=C/c1cc(O)ccc1Br` reads 94%; that for `O=C(Nc1ccccc1N1CCOCC1)c1cccc(F)c1`, 25.2%. Take `COCC(=O)N1CCCC(C(=O)c2ccc(-c3ccccc3)c(F)c2)C1` (configuration not stated): the inhibition is 53%. As for `CN1/C(=C\C(=O)Nc2cccc(Cl)c2)C(C)(C)c2ccccc21`, the figure is 8.91%. As for `CSc1ccc(OC2CCN(Cc3ccccc3)CC2)cc1`, the figure is 44.5%.

`O=C(Nc1cccc(F)c1)N(Cc1ccc(Cl)cc1)CC(O)C(F)(F)F` (configuration not stated): the inhibition was 49.9%.

Consider `CCN(CC)c1ccc(C(=S)NC2CCCCC2)cc1`, for which the inhibition stood at 62%. As for `CC1(C)CC(C(CCN(Cc2ccccc2)C(=O)c2ccco2)c2ccc(F)cc2)CCO1` (configuration not stated), the figure is -3.84%; as for `Cc1cccc(-n2ncc3c(N(C)Cc4ccccc4)ncnc32)c1`, 8.71%. Turning to `O=C(COC(=O)C1(c2ccc(Cl)cc2)CCCC1)Nc1ncc(C(F)(F)F)cc1Cl`, the inhibition is 15.7%. For the compound `CC(=O)N(Cc1ccc(F)cc1)C1=C(NCCc2ccccc2)C(=O)c2ccccc2C1=O`, the inhibition was determined as 28.8%.

Consider `CNC(=O)c1nnsc1S(=O)(=O)c1ccc(Cl)cc1`, for which the inhibition was found to be 67.7%.

On to `CC(C)Cc1ccc(C(C)C(=O)OCC(=O)c2c[nH]c3ccccc23)cc1` (configuration not stated), for which the inhibition worked out at 19.1%.

Regarding `CC(OC(=O)c1ccccc1Nc1ccc(SC(F)F)cc1)C(N)=O` (configuration not stated), the inhibition was determined as 54%.

`Clc1ccc(Cn2c(/C=C/c3ccco3)nc3ccccc32)cc1`: the inhibition is -11.2%. For the compound `c1ccc(CNc2nc(-c3cccs3)nc3ccccc23)cc1`, the inhibition came to 19.9%. The result for `N#Cc1sc2nc(C3CC3)cc(-c3ccc(Cl)cc3)c2c1N` reads -15.2%; that for `CC(C)Cn1c(/C=N/Nc2nc3ccccc3[nH]2)nc2ccccc21`, 46.9%; that for `O=C(/C=C/c1ccccc1[N+](=O)[O-])c1ccccc1Br`, 59.9%. On to `Cc1cc(C)nc(N2CCCC(C(=O)NCc3cccs3)C2)n1` (configuration not stated), for which the inhibition was 4.83%. As for `CC12CC3CC(C)(C1)CC(C(=O)NC(=S)N1CCCCC1)(C3)C2`, the figure is 77.2%. As for `CCOc1ccc(-n2cc(-c3ccccc3)c3c(N4CCOCC4)ncnc32)cc1`, the figure is 39.4%.

Regarding `O=C(N/N=C/c1cn(-c2cccs2)nc1-c1ccccc1)c1ccccc1O`, the inhibition is 44.5%.

Regarding `Cc1ccc(NC(=O)C2C(c3ccccc3)C2(Cl)Cl)c(C)c1` (configuration not stated), the inhibition amounted to 61.5%. As for `O=C(COC(=O)c1ccccc1Cc1ccccc1)Nc1ccc(SC(F)F)cc1`, the figure is 2.37%. As for `O=[N+]([O-])c1c(C(Cl)Cl)nn(-c2ccc(Cl)cc2)c1N1CCCCC1`, the figure is 44%. For the compound `CCCCN(C)C(=S)Nc1ccc(Oc2ccccc2)cc1`, the inhibition is 37.2%. As for `O=C(CNC(=S)N(Cc1ccccc1)Cc1ccccc1F)NCc1ccc(Cl)cc1`, the figure is 17.7%.

With `C=CCC1(C#N)C(SC)=NC2=C(C(=O)CC(C)(C)C2)C1c1ccc(Br)cc1` (configuration not stated), the inhibition worked out at 24.6%. As for `CC(/C=N/n1c(-c2ccco2)n[nH]c1=S)=C\c1ccccc1`, the figure is 44.2%; as for `Cc1ccc(SCCNC(=S)Nc2cc(C)cc(C)c2)cc1`, 63.9%. The result for `CCCc1cc(-c2n[nH]c(=S)n2C(C)c2ccccc2)cs1` (configuration not stated) reads 14.7%; that for `CCSC1=NC(C)(C)C=C(/C=C/c2ccc(Cl)cc2Cl)N1`, 31.9%.

Consider `FC(F)(F)c1nc(N2CCCC2)ncc1-c1nnnn1-c1ccc(Cl)cc1`, for which the inhibition is 26.8%. The result for `CCCNC(=S)Nc1ccc2nc(-c3ccccn3)c(-c3ccccn3)nc2c1` reads 5.34%. For the compound `Cc1nn(-c2ccccc2)c(C)c1NC(=O)c1ccc(S(=O)(=O)N2CCCC2)cc1`, the inhibition was -6.28%.

As for `CCN1c2ccccc2-c2nc3ccccc3n2C1c1cccs1` (configuration not stated), the inhibition amounted to 44.9%. As for `COc1cc2c(cc1NC(=O)CSc1nc3ccccc3[nH]1)oc1ccccc12`, the figure is 14%; as for `c1ccc(-c2noc(-c3cccc4ccccc34)n2)cc1`, 61.1%. The result for `CCC1(C)OCC(Cn2c3ccccc3c3ccccc32)O1` (configuration not stated) reads 47.1%; that for `CCCc1ccc(-c2cc(C(=O)N/N=C/c3ccc([N+](=O)[O-])o3)c3ccccc3n2)cc1`, 60%; that for `CCOC(=O)c1c(N)sc(C(O)(C(F)(F)F)C(F)(F)F)c1-c1ccc(Cl)cc1`, 89.3%.

Turning to `CC(=O)N1N=C(c2ccc(C)cc2)OC1c1ccc(C(C)C)cc1` (configuration not stated), the inhibition came to 45.9%.

On to `CC(C)C(=O)Nc1cc(S(=O)(=O)Nc2ccc(Cl)cc2)ccc1Cl`, for which the inhibition is 19.7%. As for `CCC(=C(c1ccc(OC)cc1)c1ccc(OC)cc1)c1cn(CC(O)CN(CCO)CCO)c2ccccc12` (configuration not stated), the inhibition came out at 95.4%.

Take `Cc1ccc(CNC(=O)c2ccc(Cn3nc(C)c(Cl)c3C)o2)cc1`: the inhibition turned out to be 63.2%. Regarding `N=c1ccn(CC(=O)c2ccc(-c3ccccc3)cc2)cc1`, the inhibition came out at 63.9%. With `CCCn1c(/C=N/Nc2nc3ccccc3[nH]2)nc2ccccc21`, the inhibition stood at 49.5%. Regarding `Cc1cc(Cl)ccc1OCc1n[nH]c(=S)n1C1CCCCC1`, the inhibition was 70%. As for `Cc1cc(C)c(S(=O)(=O)Nc2ccc3c(c2)CCC3)c(C)c1`, the figure is 62.8%; as for `Cc1ccc(C)c(NC(=S)NCCc2ccc(F)cc2)c1`, 35%; as for `Cc1nc(NC(=O)COC(=O)CCS(=O)(=O)c2ccccc2Cl)c(Cl)cc1Cl`, 30.8%. The result for `O=C(Nc1cccc(Cl)c1)c1csc(-c2ccccc2)n1` reads 37.2%; that for `CCOC(=O)C(=NC1CCS(=O)(=O)C1)NNc1ccc(Br)cc1` (configuration not stated), 52.1%; that for `CCc1ccccc1N(CC)C(=O)CCc1nc(-c2ccc(C)cc2)no1`, 22.1%. The result for `COC(=O)CNC(=O)CNC(=O)c1nn(-c2ccc(OC)c(Cl)c2)c(=O)c2ccccc12` reads 5.52%; that for `CC(C1CC2CCC1C2)n1c(-c2ccco2)n[nH]c1=S` (configuration not stated), 36.7%; that for `CN(Cc1ccc(F)cc1)C(=O)COc1ccccc1-c1ccccc1`, 21.1%. For `Cc1ccc(C)c(Nc2ncccc2C(=O)NCc2cccs2)c1`, the inhibition was found to be 21.7%. The result for `NC(=O)c1ccsc1NC(=O)c1ccc2c(c1)CCCC2` reads 69.5%.

As to `CCOC(=O)c1sc(/N=C/c2c(C)[nH]n(-c3ccccc3)c2=O)c(C#N)c1C`, the inhibition worked out at 8.93%. As to `O=[N+]([O-])c1cc([N+](=O)[O-])c(N2CCCCCC2)cc1NCCO`, the inhibition was determined as 42.8%. The result for `CCOC(=O)c1c(-c2ccc(C)cc2)csc1NC(=O)C1CCCO1` (configuration not stated) reads 6.27%; that for `CC(C)(C)SCCNC(=O)c1ccc(Cl)c([N+](=O)[O-])c1`, 57.2%. The result for `COc1ccc(C2SCC(=O)N2CC23CC4CC(CC(C4)C2)C3)cc1` (configuration not stated) reads 40.7%; that for `O=C(c1ccc(COc2ccc(Cl)cc2)o1)N1CCN(Cc2ccc3c(c2)OCO3)CC1`, 58%; that for `Cc1ccc2nc(-c3ccccc3)c(-c3ccccc3)nc2c1`, 42.9%.

For the compound `CN(CCCC(=O)NCc1ccco1)S(=O)(=O)c1ccccc1`, the inhibition came out at 13.4%. As for `Cc1ccc(NC(=S)NCCSc2ccc(Cl)cc2)c(C)c1`, the figure is 39.6%; as for `CCOC(=O)C1CCCN(C(=O)CS(=O)(=O)Cc2ccccc2)C1` (configuration not stated), -16.8%; as for `CCOc1ccc(-n2cc(C(=O)c3cc(Cl)ccc3O)cc(C#N)c2=O)cc1`, 31.8%.

As for `CCCCN1C2=C(C(=O)CCC2)C(c2ccc(Cl)c(Cl)c2)C2=C1c1ccccc1C2=O` (configuration not stated), the inhibition was found to be 35.6%. As for `COC(=O)C1CSc2[nH]c(=O)sc2C1c1ccc(OC)c(OC)c1` (configuration not stated), the figure is 16.2%.

Consider `CN(C(=S)Nc1ccc(Oc2ccccc2)cc1)C1CCCCC1`, for which the inhibition came out at 53.9%. As for `Cc1cc(C)cc(NC(=S)Nc2cccc3cnccc23)c1`, the figure is 0.75%. The result for `CC(C)(C)c1cc(OC(=O)c2ccccc2F)ccc1O` reads 29.9%. Regarding `CCN1CCc2c(sc(NC(=O)Nc3ccc(Cl)c(Cl)c3)c2C(N)=O)C1`, the inhibition is 29.4%. For the compound `O=C(NC(=S)Nc1ccccc1N1CCCCC1)c1ccco1`, the inhibition amounted to 22.6%.
